Results as given in the supplement of paper PMC3334620.
Whole data set: some 33,000 sequences, median “E-score (-0.5 to 0.5)” near -0.011, cut for the highest 2% near 0.28. The list shows a part of the results.

Target: T1, Gcr1 (UniProt P07261)
T1 sequence: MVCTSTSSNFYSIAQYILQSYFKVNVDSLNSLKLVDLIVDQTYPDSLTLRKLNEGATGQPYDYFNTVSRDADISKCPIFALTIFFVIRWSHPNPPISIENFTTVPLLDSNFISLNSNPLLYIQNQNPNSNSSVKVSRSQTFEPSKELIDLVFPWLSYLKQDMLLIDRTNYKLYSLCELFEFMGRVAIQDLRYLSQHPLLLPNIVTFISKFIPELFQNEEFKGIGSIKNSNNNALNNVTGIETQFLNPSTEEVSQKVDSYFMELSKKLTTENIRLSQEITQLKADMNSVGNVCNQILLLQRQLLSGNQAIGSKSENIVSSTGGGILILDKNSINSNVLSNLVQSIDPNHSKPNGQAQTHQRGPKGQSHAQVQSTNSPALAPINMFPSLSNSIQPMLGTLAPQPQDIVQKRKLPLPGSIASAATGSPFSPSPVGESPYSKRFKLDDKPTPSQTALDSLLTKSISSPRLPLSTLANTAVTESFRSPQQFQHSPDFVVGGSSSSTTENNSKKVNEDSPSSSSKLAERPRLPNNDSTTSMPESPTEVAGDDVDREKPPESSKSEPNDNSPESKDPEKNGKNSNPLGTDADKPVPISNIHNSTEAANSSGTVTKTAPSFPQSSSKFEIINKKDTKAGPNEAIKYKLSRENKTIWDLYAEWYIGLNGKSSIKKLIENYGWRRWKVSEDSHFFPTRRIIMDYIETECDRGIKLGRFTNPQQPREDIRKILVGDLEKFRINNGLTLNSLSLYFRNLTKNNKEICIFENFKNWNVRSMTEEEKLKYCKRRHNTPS
Assay: PBM E-score (8-mer binding enrichment) (E-score (-0.5 to 0.5)); higher = stronger / more preferred TF binding; most listed sequences are background and not binding sites
Details: protein concentration: 100 nM; construct: GST-full length
Method in brief: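 Bound GST-tagged yeast transcription factors, applied at about 100-200 nM to double-stranded universal all-10-mer Agilent arrays, were detected with fluorescent anti-GST. Scans were normalised with masliner. A modified Wilcoxon-Mann-Whitney statistic, the E-score, was assigned to each ungapped eight-base word pooled with its reverse complement by the Universal PBM Analysis Suite.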

Sequence	PBM E-score
CAGACTGC	-0.0147
AAGGTACG	-0.0548
ACTTTGGG	0.174
AGAGATAG	0.0169
GCCGGGCA	-0.0853
ATACTTGA	-0.0859
AACCCCTA	0.044
GCCAGCGC	-0.0388
ACAATTAC	-0.055
TCTAAGAA	0.0856
ACTCGTAG	-0.186
AGACCGCG	-0.0635
AAGGCCAT	-0.392
CTGCGCAC	0.0368
GGCCTGTA	0.00404
CCTCTTGA	-0.134
GTGGGGAA	0.0372
ACGATCGT	-0.096
AGAACCAC	0.035
GTGTGTAA	-0.0207
ATCATGCA	-0.0453
AGAGGTTC	0.193
CTCACGAG	-0.0581
CTCAATTC	0.167
ACCATTGC	0.0464

Sequence	PBM E-score
GCGAAACA	0.0945
CGAGTTAC	-0.235
GCCGGTCA	-0.0552
GGTGTTAA	0.00498
AACGTAGT	-0.228
ATATGGTA	0.00898
CACATTGA	-0.0137
CGTTGTAA	-0.149
GTAAGATA	-0.0467
ACCCTGGC	-0.0123
GCTAAGCA	-0.0833
AAATAATG	0.123
CCGAATAC	0.258
GGACGAAC	0.00554
GCCCGAGA	0.0192
CCAAGCAC	-0.0882
GAAACGGC	-0.109
CAACTTTA	0.00622
CTCGTCAC	0.1
ACTACATC	-0.114
TATCAAAA	0.0902
GATCACAA	0.0422
ATATACAA	-0.0374
CCGAGAGC	-0.045
GCGCCCAA	0.18

Sequence	PBM E-score
TCTATAGA	-0.194
AAAGGAAC	0.219
AGGCCCAT	-0.0769
GAGGCCCC	0.0233
CTAACCTC	0.011
ACGGGTAA	-0.102
CAGCTTGG	-0.00404
GCGAAACC	0.0128
CACCGCAC	-0.0228
GCATGGCA	0.0488
GGTGATAC	-0.00348
AAAAGCAG	0.095
ACCGCGTC	0.0198
TATCGTAA	-0.0159
ACCGCCGC	0.0774
AAAGGTTA	-0.141
ATTAGCAA	0.108
AATACGTA	0.247
ATTATCAC	0.18
TATCTTAA	0.0235
TAGGTCCA	0.109
CCAGATGA	0.141
ACGGGAGC	0.0784
CACAGCAG	0.163
ACACGTGC	-0.111

Sequence	PBM E-score
CAACGGTA	-0.0142
ATAAGGAC	0.0366
AATCGATT	0.147
CAGCCACA	0.0295
CCCAAGCC	0.0119
CTGGCACC	0.392
CTGCGTAC	-0.0978
AGTCTCAC	-0.106
CATGAACG	-0.0993
GGGGGCGA	-0.0875
ACATCATC	0.0184
CTGGGTGC	0.244
GGCCAATA	-0.0435
AAACTATC	-0.19
ACTGTGAT	-0.201
CTCTATAA	0.0698
CATATAGG	0.0935
TACTGACA	0.0589
ATAAGCAC	0.0508
ACCGGCGA	0.021
AAACCAGC	-0.00341
GAAGTGGA	0.219
GGGAGGAA	-0.0689
TAGCGGCA	0.105
AGCTTACA	-0.16

Sequence	PBM E-score
CTCGTAGA	-0.0969
CGATTCCG	-0.0838
ATTGGCCA	-0.00804
TGGTGCAA	0.138
GTCCCTTA	-0.219
CCCATGAG	-0.0288
ATGAATGA	-0.0327
GGAAAGCC	0.0416
CGGTCTTC	0.0421
GTGATCGA	-0.243
GACCTCCA	0.11
TCCGGCGA	-0.0118
AACGCGGC	-0.0306
CCGGACAA	-0.0303
GGAGTATA	-0.121
ACTAAACG	0.0167
CTGACTAC	-0.0833
GTACGCCA	-0.167
GAAGATGA	-0.0956
ACCGTACA	-0.142
AACGACGA	0.0525
GAGAGCTA	-0.178
ACGGCGCT	-0.00448
ACTTAAGG	0.0916
ATAGGTGG	0.105

Sequence	PBM E-score
ACTCAACG	-0.176
ATTGACCC	-0.0689
AAACAAAC	0.0439
CTCCCAAA	0.0739
AAGATCTG	-0.101
CGCATCAA	-0.0181
AAAATGGT	0.175
ATATTTCA	0.0272
AACAAGGG	-0.215
AGCACCTC	-0.0162
CCTAAATA	0.129
ACCCCAAA	0.175
CAAATCAG	0.0595
GGGGCCCA	0.199
TACGACGA	-0.0661
GGCTCATA	-0.155
CATTCCGA	0.0382
CTGATAGC	-0.204
ATTGAAAG	-0.00665
CCGAAATA	0.247
CCTGTTTC	0.186
AGCAGTCA	0.0392
AGGCCCAA	-0.0311
TTATAGAA	0.027
CGCCACAG	0.0993

Sequence	PBM E-score
AGGTTGAA	-0.00247
CACGTCCC	-0.0357
AAGAGCTG	-0.0201
AAATACCG	0.118
ATGTCCTA	-0.0152
ACATCCCT	-0.0835
TGTAGGAA	0.0643
TGCCAACA	0.0456
AGTTAGTG	-0.155
AAATAGAT	0.125
TATCGGGA	0.18
CCGTTACA	-0.142
CCTGCAGC	0.153
GCCGCATA	-0.082
TATCCATA	0.0196
ACTTTTGG	0.0757
AAACCGTG	0.051
ACAACCGT	-0.229
ACGTCCGC	-0.107
ACTCGAAA	0.0966
TACATCTA	0.0674
GAGAGACC	-0.0739
